From the BET-seq Pho4 binding data (Le et al. 2018)
The other results are listed elsewhere or left out. Values were computed here from the reads of four pooled replicates and scatter widely.

Molecular target: T1, Pho4 (S. cerevisiae) (UniProt P07270)
T1 sequence: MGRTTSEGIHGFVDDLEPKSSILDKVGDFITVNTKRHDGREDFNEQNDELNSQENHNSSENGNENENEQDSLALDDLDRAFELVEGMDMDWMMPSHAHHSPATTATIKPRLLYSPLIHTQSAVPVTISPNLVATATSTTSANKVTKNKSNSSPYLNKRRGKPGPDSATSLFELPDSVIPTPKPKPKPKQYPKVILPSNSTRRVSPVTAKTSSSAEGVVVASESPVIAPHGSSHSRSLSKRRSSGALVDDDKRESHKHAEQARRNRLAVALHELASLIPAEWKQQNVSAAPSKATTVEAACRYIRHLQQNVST
Experiment: relative binding free energy (BET-seq); higher = weaker binding
Settings: reference: library average

Sequence | relative binding free energy [kcal/mol]
GGAGGCACGTGGGATA | -0.22
TTTCGCACGTGTGCTT | -0.01
ATGCTCACGTGCGGGG | 0.03
AGAGGCACGTGGTCGG | -0.21
GGTAACACGTGGGTTG | -0.12
AGGAGCACGTGGTGTG | -0.19
GTTATCACGTGGCAGT | -0.01
GAGGTCACGTGGGCGG | 0.04
ATAATCACGTGTATGA | 0.03
AATTGCACGTGAAAGT | 0.3
TTGGGCACGTGATCAT | -0.12
CCGTTCACGTGGGTTG | 0.24
GAGTGCACGTGTTGTA | 0.04
GTGGGCACGTGGCAGT | -0.15
AATTTCACGTGCATGG | 0.25
AAAGCCACGTGGCGGG | -0.01
GATCTCACGTGAGTGG | 0.52
GGAGGCACGTGAAGGG | 0.24
GAGTTCACGTGGGTGC | 0.32
TTGCACACGTGGGGGA | -0.09
TCGTACACGTGGTTGA | -0.02
GGGTACACGTGGTATT | 0.12
TCAGGCACGTGTTGCG | 0
AGGAACACGTGGTTGT | -0.05
GTGTGCACGTGGGAAT | 0.02
ATCTTCACGTGGTTGT | 0.2

Sequence | relative binding free energy [kcal/mol]
TGGGGCACGTGGTGAC | -0.16
GGGGTCACGTGAAGCT | 0.46
AGTTTCACGTGCTAGG | 0.14
AGGGGCACGTGAGCAT | -0.04
TTTGCCACGTGTTAGT | -0.04
TAGGGCACGTGCTTGG | -0.27
AGGTGCACGTGTTTCA | -0.15
AGAGGCACGTGAAAAG | 0.24
CGGTTCACGTGTGGTT | 0.35
CTATGCACGTGTTAAG | -0.02
TGGTTCACGTGCTTGC | 0.16
AGAGGCACGTGTTTGA | -0.2
TCTGGCACGTGGTTTC | -0.14
TGGGTCACGTGGTCTC | -0.03
ATTATCACGTGAATTT | 0.28
ATTATCACGTGGATGG | 0.15
GGCGTCACGTGATTAG | 0.29
AAGGGCACGTGCATAT | -0.13
CTTTACACGTGTTGTC | 0.09
ACTATCACGTGTTTAT | 0.07
TGATGCACGTGGCGCG | 0.03
GCGACCACGTGAGGGG | 0.33
GCATACACGTGGGCGG | 0.02
AATCGCACGTGTTGGG | -0.12
ATGCGCACGTGGTGAG | -0.1
GGAGGCACGTGGTATA | -0.12

Sequence | relative binding free energy [kcal/mol]
TTGATCACGTGGAAAG | 0.19
TTAGGCACGTGACAGT | -0.02
TTAGGCACGTGCTGAT | -0.2
AGCCTCACGTGTTGGT | 0.15
AGTGGCACGTGAGGAA | 0.05
CAGTTCACGTGGGTAG | 0.06
TTCTTCACGTGTTTTG | 0.29
TTGGTCACGTGCTGTA | 0.08
CATATCACGTGTGTTA | 0.2
GATAACACGTGAGGGG | 0.31
TTTGACACGTGCAAGT | 0.02
AATGACACGTGCGTTG | -0.1
TGCAACACGTGGCGGG | -0.07
TTCGTCACGTGAACGG | 0.24
TTTGCCACGTGGTCAT | -0.16
AGGTCCACGTGTGGGT | 0.1
AATGGCACGTGCAGAG | -0.09
AGAGGCACGTGGCGTT | -0.29
AGAGACACGTGAGGGG | 0.22
TGAACCACGTGGGGTA | -0.24
GCGAGCACGTGGCTGG | -0.1
ACTTGCACGTGGTTTG | -0.17
TGCGACACGTGTGGCT | 0.12
TGTGTCACGTGCTGCG | -0.11
TGGCTCACGTGAGGCG | 0.47
CGAGTCACGTGGTTAT | 0.1

Sequence | relative binding free energy [kcal/mol]
AGCATCACGTGGGGAG | -0.05
GTGGCCACGTGTGGGC | -0.1
GTTTTCACGTGGGCCG | 0.31
CTGGTCACGTGTCGTT | 0.22
CGTATCACGTGTATAT | 0.16
ATATACACGTGGGGCT | -0.11
CAGTTCACGTGTTAGG | 0.22
ATATTCACGTGAGCTG | 0.32
AAGGTCACGTGCGTGA | -0.1
TTATGCACGTGCAGAG | 0.02
CGGTTCACGTGGTTTC | 0.21
GTCAGCACGTGTTATT | 0
ATTTTCACGTGTGTGA | 0.23
TAATTCACGTGGCTAT | 0.23
GTGATCACGTGACTGG | 0.35
GGCGTCACGTGTAGGC | 0.13
AATGGCACGTGGGTCA | -0.39
GAGTGCACGTGAGATT | 0.28
GCGTGCACGTGAGTTT | 0.15
AGAAGCACGTGAAGGT | 0.09
AATGTCACGTGTCTGT | 0.2
TTGGCCACGTGAGAGG | 0.26
TGATGCACGTGCGTGT | -0.08
GGTGCCACGTGTTATA | -0.08
GGCGTCACGTGGAAGG | 0.16
GTGCGCACGTGGTGAT | -0.08

Sequence | relative binding free energy [kcal/mol]
AGTATCACGTGGGGAG | -0.05
TTGTTCACGTGGTACC | 0.13
ATGAACACGTGGGTTT | -0.07
CCTTACACGTGGGTGG | 0.11
GATAACACGTGGAGGG | -0.02
ATTACCACGTGTTAGT | -0.07
ATTCTCACGTGATTGT | 0.19
GGTTTCACGTGTCAAG | 0.28
TACTGCACGTGAGTTA | 0.17
AAGTTCACGTGTAACG | 0.37
TACATCACGTGAGTTT | 0.24
AAACACACGTGTGTGT | 0.11
GGGTGCACGTGATTCT | 0.12
AGGCGCACGTGTGGCA | -0.05
ATGTCCACGTGGTATA | -0.06
CGGGACACGTGGCGGT | 0.02
ACGTACACGTGTGTGG | 0
GGGGGCACGTGATAAA | 0.07
TCGGTCACGTGTCAGT | 0.14
GTTATCACGTGGGGGG | 0.05
GGGTACACGTGTTGCG | -0.01
CTTAGCACGTGTTTCG | 0.03
GGGTTCACGTGGGTTT | 0.24
GGATGCACGTGATGCG | 0.21
TGACACACGTGAGTGG | 0.22
AAGGGCACGTGGCGCG | -0.16

Sequence | relative binding free energy [kcal/mol]
GTCGTCACGTGGTTGA | -0.19
GAATGCACGTGCTTGT | 0.1
GTGGACACGTGGCGAG | 0.1
GATATCACGTGTGGTA | 0.3
CTGAGCACGTGGGCGT | -0.24
TAGGTCACGTGCTTGC | 0.07
GCGTCCACGTGGGGGT | -0.22
GGCTACACGTGTTTTT | 0.33
TGAAACACGTGGCGTG | 0.01
GGGTACACGTGATGTC | 0.31
TGTTACACGTGACGTT | 0.31
TACTGCACGTGATATG | 0.03
AGAGTCACGTGGGTAC | -0.03
TTGGGCACGTGGCAGG | -0.26
TTTGCCACGTGTGGTT | -0.01
TGATACACGTGTGTGG | 0.04
ATTATCACGTGGAGTA | 0.16
GGTCGCACGTGCGATG | 0.04
CATAGCACGTGGTAGG | -0.21
AAGGGCACGTGGCTTT | -0.3
GTTCTCACGTGTAAGG | 0.19
ACGGTCACGTGTTGAG | 0.11
GTTGTCACGTGGTAAG | 0.15
TACAGCACGTGAGTGG | 0.03
TTCTTCACGTGGGTAG | 0.15
TAAGTCACGTGGGGAA | -0.01

Sequence | relative binding free energy [kcal/mol]
GCGTGCACGTGTGGCG | -0.1
GTGGGCACGTGAGATA | 0.25
AATTGCACGTGGGTTT | -0.12
TTTCTCACGTGATGTA | 0.37
GGTTACACGTGAAGAT | 0.41
TGTTGCACGTGCCGGG | -0.1
CCTTGCACGTGGTGTT | -0.14
GTTATCACGTGGATTG | 0.32
GGAGGCACGTGGAAGT | 0.08
TATAACACGTGGGATG | -0.1
GGGGCCACGTGTGTAG | -0.03
TAAGTCACGTGTGGTT | 0.09
CATAGCACGTGTGGTG | -0.12
GTATGCACGTGTGGAG | 0.08
GGTAGCACGTGTGAGC | -0.04
TGGGACACGTGTCGGT | 0.09
GTGGACACGTGGAGAG | 0.12
ATTATCACGTGGGAGG | 0.16
AATGGCACGTGTTGGT | 0.02
GTGGCCACGTGGAGGA | 0.02
AGGGACACGTGCTTGG | -0.07
TGGGCCACGTGCAGTT | -0.01
TTTCTCACGTGGGGAA | 0.15
GGTTTCACGTGGGAGC | 0.36
AGGGGCACGTGGCTCT | -0.08
AGGAGCACGTGTATTA | -0.07

Sequence | relative binding free energy [kcal/mol]
TCTTACACGTGAGATT | 0.44
TTCTACACGTGTGTGC | 0.17
ATCTGCACGTGGATTT | 0.12
CATGACACGTGGGGGG | -0.08
TGTATCACGTGTGAAA | 0.13
TTAGTCACGTGCGGGC | 0
AATGTCACGTGTATGA | 0.19
TGGATCACGTGATATG | 0.25
TGTTCCACGTGAAGTA | 0.3
TAGAGCACGTGTTTAG | -0.15
ACATTCACGTGGTGAT | 0.19
GTTTGCACGTGCATTG | 0.04
TTGGCCACGTGAGAGT | 0.04
TGATTCACGTGTACAT | 0.37
TATGGCACGTGGGGGG | -0.19
CGGGGCACGTGTAGCG | -0.04
TACGTCACGTGTGAGT | 0.18
AGTGACACGTGGGGGT | -0.14
TGTATCACGTGGGACA | 0.02
GTCGTCACGTGCGGTT | 0.09
TGGGACACGTGTATGG | 0.04
TTTTCCACGTGCTTTG | 0.05
TGGGGCACGTGAGATT | 0.22
AGGTACACGTGAGCGG | 0.2
GAGAGCACGTGAAGGG | 0.26
GTGGGCACGTGCTTTC | -0.07

Sequence | relative binding free energy [kcal/mol]
TGCGACACGTGAGGGA | 0.21
GGGAACACGTGGTTGC | 0.05
TTAATCACGTGTCTAG | 0.19
TGGATCACGTGGGGCT | -0.03
TATAGCACGTGTGGAG | -0.03
TGATACACGTGGTACT | 0.04
TGGGTCACGTGGTGGG | 0.06
TTAGGCACGTGCGTGC | -0.12
TTTTGCACGTGTCATT | 0.21
GGGTCCACGTGTGTTT | 0.12
TTGTTCACGTGCGCGA | 0.09
AGGGGCACGTGGGGGG | -0.15
GGGCTCACGTGGTCTG | 0.26
TATATCACGTGAATGA | 0.42
GCTTGCACGTGAGCGT | 0.26
ATTTACACGTGTAGTT | 0.11
GTCTTCACGTGAATTT | 0.48
CGGGGCACGTGCCGTG | -0.23
GAGGTCACGTGCGATG | 0.13
TACAACACGTGAGGGG | 0.36
AAAGTCACGTGGTAGG | 0.03
CTGGCCACGTGGGGCG | -0.32
